From the supplement of paper PMC10369915
The other results are listed elsewhere or left out. Rule as the data show it: active = 3.2 or more and inactive = the rest. The signal is at background level for most entries.

Target: SHP2 C-SH2 domain E139D
Assay: enrichment score (SH2-bound / input frequency) (ratio); bacterial display of known human phosphotyrosine sites (pTyr-Var adds point mutants) read by sequencing; higher = stronger binding; tyrosines were phosphorylated by kinases first
Conditions: peptide library: Human pTyr
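Also: displayed peptides selected on beads carrying the immobilized SH2 domain, with library peptides lacking any tyrosine serving as negative controls.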

Enrichment score, inactive:
FPNSNSMYIDRPPSG [LCP2_HUMAN_173] 0.632, KDETFGEYRSLESDN [L1CAM_HUMAN_1176] 0.897, VRDQQLVYSAGVARL [ANC2_HUMAN_810_YA] 0.756, ALDEAAAYQSRDYYN [ANDR_HUMAN_359] 0.562, TFLASGDYADFQPFT [LAX1_HUMAN_345] 0.472, AYPATGPYGAPAGPL [LGALS3_HUMAN_107] 0.76, DGEDDGDYESPNEEE [LCP2_HUMAN_128] 0.78, DPDSLADYFKKLNYK [LCP2_HUMAN_23] 1.7, SKKTFASYMPQFQTC [LEPR_HUMAN_1141] 1.81, STEDTAEYSPFKGGY [ANDR_HUMAN_309] 0.528, IPTSAPVYQQPQQQP [LASP1_HUMAN_171] 0.749, KIVSGKDYNVTANSK [LDHA_HUMAN_83] 0.902, SSQISNDYVNMTGLD [LAX1_HUMAN_268] 0.888, TVPESPNYRNTRTPR [LARP1_HUMAN_777] 1.02, ADEDEDDYHNPGALV [LAT_HUMAN_156_YA] 1.2, VRDQQLVYSAGVYRL [ANC2_HUMAN_810] 0.91, AAPATGPYGAPAGPL [LGALS3_HUMAN_107_YA] 0.79, DLPDELLYGRAGYLY [LANC2_HUMAN_198] 0.709

Target: SHP2 C-SH2 domain wild-type
Assay: as above
Conditions: peptide library: Human pTyr

Enrichment score, inactive:
FPNSNSMYIDRPPSG [LCP2_HUMAN_173] 0.475, KDETFGEYRSLESDN [L1CAM_HUMAN_1176] 0.762, VRDQQLVYSAGVARL [ANC2_HUMAN_810_YA] 0.683, ALDEAAAYQSRDYYN [ANDR_HUMAN_359] 0.522, TFLASGDYADFQPFT [LAX1_HUMAN_345] 0.524, AYPATGPYGAPAGPL [LGALS3_HUMAN_107] 0.46, DGEDDGDYESPNEEE [LCP2_HUMAN_128] 0.948, DPDSLADYFKKLNYK [LCP2_HUMAN_23] 1.71, SKKTFASYMPQFQTC [LEPR_HUMAN_1141] 1.7, STEDTAEYSPFKGGY [ANDR_HUMAN_309] 0.48, IPTSAPVYQQPQQQP [LASP1_HUMAN_171] 0.617, KIVSGKDYNVTANSK [LDHA_HUMAN_83] 0.755, SSQISNDYVNMTGLD [LAX1_HUMAN_268] 0.582, TVPESPNYRNTRTPR [LARP1_HUMAN_777] 0.973, ADEDEDDYHNPGALV [LAT_HUMAN_156_YA] 1.11, VRDQQLVYSAGVYRL [ANC2_HUMAN_810] 0.793, AAPATGPYGAPAGPL [LGALS3_HUMAN_107_YA] 0.482, DLPDELLYGRAGYLY [LANC2_HUMAN_198] 0.72

Target: SHP2 N-SH2 domain L43F
Assay: as above
Conditions: peptide library: Human pTyr

Enrichment score, inactive:
FPNSNSMYIDRPPSG [LCP2_HUMAN_173] 0.608, KDETFGEYRSLESDN [L1CAM_HUMAN_1176] 0.801, VRDQQLVYSAGVARL [ANC2_HUMAN_810_YA] 0.744, ALDEAAAYQSRDYYN [ANDR_HUMAN_359] 0.736, TFLASGDYADFQPFT [LAX1_HUMAN_345] 0.504, AYPATGPYGAPAGPL [LGALS3_HUMAN_107] 0.303, DGEDDGDYESPNEEE [LCP2_HUMAN_128] 0.708, DPDSLADYFKKLNYK [LCP2_HUMAN_23] 1.02, SKKTFASYMPQFQTC [LEPR_HUMAN_1141] 1.57, STEDTAEYSPFKGGY [ANDR_HUMAN_309] 0.49, IPTSAPVYQQPQQQP [LASP1_HUMAN_171] 0.763, KIVSGKDYNVTANSK [LDHA_HUMAN_83] 1.37, SSQISNDYVNMTGLD [LAX1_HUMAN_268] 0.672, TVPESPNYRNTRTPR [LARP1_HUMAN_777] 0.934, ADEDEDDYHNPGALV [LAT_HUMAN_156_YA] 0.777, VRDQQLVYSAGVYRL [ANC2_HUMAN_810] 1.14, AAPATGPYGAPAGPL [LGALS3_HUMAN_107_YA] 0.55, DLPDELLYGRAGYLY [LANC2_HUMAN_198] 0.793

Target: SHP2 N-SH2 domain T42A
Assay: as above
Conditions: peptide library: Human pTyr

Enrichment score, inactive:
FPNSNSMYIDRPPSG [LCP2_HUMAN_173] 0.509, KDETFGEYRSLESDN [L1CAM_HUMAN_1176] 0.713, VRDQQLVYSAGVARL [ANC2_HUMAN_810_YA] 0.673, ALDEAAAYQSRDYYN [ANDR_HUMAN_359] 0.479, TFLASGDYADFQPFT [LAX1_HUMAN_345] 0.626, AYPATGPYGAPAGPL [LGALS3_HUMAN_107] 0.453, DGEDDGDYESPNEEE [LCP2_HUMAN_128] 0.676, DPDSLADYFKKLNYK [LCP2_HUMAN_23] 1.54, SKKTFASYMPQFQTC [LEPR_HUMAN_1141] 1.42, STEDTAEYSPFKGGY [ANDR_HUMAN_309] 0.519, IPTSAPVYQQPQQQP [LASP1_HUMAN_171] 0.744, KIVSGKDYNVTANSK [LDHA_HUMAN_83] 0.924, SSQISNDYVNMTGLD [LAX1_HUMAN_268] 0.883, TVPESPNYRNTRTPR [LARP1_HUMAN_777] 1.32, ADEDEDDYHNPGALV [LAT_HUMAN_156_YA] 1.02, VRDQQLVYSAGVYRL [ANC2_HUMAN_810] 1.02, AAPATGPYGAPAGPL [LGALS3_HUMAN_107_YA] 0.433, DLPDELLYGRAGYLY [LANC2_HUMAN_198] 0.805

Target: SHP2 N-SH2 domain T52S
Assay: as above
Conditions: peptide library: Human pTyr

Enrichment score, inactive:
FPNSNSMYIDRPPSG [LCP2_HUMAN_173] 0.578, KDETFGEYRSLESDN [L1CAM_HUMAN_1176] 0.904, VRDQQLVYSAGVARL [ANC2_HUMAN_810_YA] 1, ALDEAAAYQSRDYYN [ANDR_HUMAN_359] 0.555, TFLASGDYADFQPFT [LAX1_HUMAN_345] 0.344, AYPATGPYGAPAGPL [LGALS3_HUMAN_107] 0.478, DGEDDGDYESPNEEE [LCP2_HUMAN_128] 0.924, DPDSLADYFKKLNYK [LCP2_HUMAN_23] 0.963, SKKTFASYMPQFQTC [LEPR_HUMAN_1141] 1.85, STEDTAEYSPFKGGY [ANDR_HUMAN_309] 0.497, IPTSAPVYQQPQQQP [LASP1_HUMAN_171] 0.746, KIVSGKDYNVTANSK [LDHA_HUMAN_83] 0.88, SSQISNDYVNMTGLD [LAX1_HUMAN_268] 0.714, TVPESPNYRNTRTPR [LARP1_HUMAN_777] 1.05, ADEDEDDYHNPGALV [LAT_HUMAN_156_YA] 1.11, VRDQQLVYSAGVYRL [ANC2_HUMAN_810] 0.985, AAPATGPYGAPAGPL [LGALS3_HUMAN_107_YA] 0.81, DLPDELLYGRAGYLY [LANC2_HUMAN_198] 0.773

Target: SHP2 N-SH2 domain wild-type
Assay: as above
Conditions: peptide library: Human pTyr

Enrichment score, inactive:
FPNSNSMYIDRPPSG [LCP2_HUMAN_173] 0.582, KDETFGEYRSLESDN [L1CAM_HUMAN_1176] 0.899, VRDQQLVYSAGVARL [ANC2_HUMAN_810_YA] 0.775, ALDEAAAYQSRDYYN [ANDR_HUMAN_359] 0.462, TFLASGDYADFQPFT [LAX1_HUMAN_345] 0.454, AYPATGPYGAPAGPL [LGALS3_HUMAN_107] 0.416, DGEDDGDYESPNEEE [LCP2_HUMAN_128] 0.844, DPDSLADYFKKLNYK [LCP2_HUMAN_23] 1.56, SKKTFASYMPQFQTC [LEPR_HUMAN_1141] 2.32, STEDTAEYSPFKGGY [ANDR_HUMAN_309] 0.502, IPTSAPVYQQPQQQP [LASP1_HUMAN_171] 0.814, KIVSGKDYNVTANSK [LDHA_HUMAN_83] 1.27, SSQISNDYVNMTGLD [LAX1_HUMAN_268] 0.655, TVPESPNYRNTRTPR [LARP1_HUMAN_777] 1.21, ADEDEDDYHNPGALV [LAT_HUMAN_156_YA] 1.31, VRDQQLVYSAGVYRL [ANC2_HUMAN_810] 0.917, AAPATGPYGAPAGPL [LGALS3_HUMAN_107_YA] 0.758, DLPDELLYGRAGYLY [LANC2_HUMAN_198] 0.732
